Measurements reported in the supplement of paper PMC10600219.
Where a name gives a salt, the structure may show the parent alone. The full ranking holds about 2,800 compounds; the median of “cell viability relative to vehicle” is about 0.98, and the lowest 2% start at about 0.45. This is one part of the list.

system: NCI-H2228 alectinib-DTP; assay: cell viability relative to vehicle (fraction of vehicle); NCI-H2228 is an ALK-positive lung cancer line and DTP means drug-tolerant persister; higher = less growth inhibition; details: 100 nM; treatment time 6 days
Method in brief: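 The 3114-agent TargetMol anti-cancer compound library was tested at 100 nM for 6 days on parental NCI-H2228 cells and on persister cells derived with 1000 nM of a targeted drug for 13 days. ATP readout by the CellTiter-Glo 3D Cell Viability Assay gave cell viability relative to DMSO vehicle-treated cells.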

| SMILES | cell viability |
| --- | --- |
| N#Cc1c(-c2ccccc2)cc(-c2cc(Br)ccc2O)[nH]c1=O | 0.907 |
| N#C/C(=C/c1ccc(O)c(O)c1)C(=O)N1CCc2ccccc21 [Tyrphostin AG 528] | 1.03 |
| C[C@@]12C[C@@]3(O)O[C@@H](O1)[C@]1(COC(=O)c4ccccc4)[C@H]3C[C@@]12O[C@@H]1O[C@H](CO)[C@@H](O)[C@H](O)[C@H]1O [Paeoniflorin] | 1.08 |
| CC(C)=CC[C@H](O)C1=CC(=O)c2c(O)ccc(O)c2C1=O [Alkannin] | 0.957 |
| CCC1=C(C)CN(C(=O)NCCc2ccc(S(=O)(=O)NC(=O)N[C@H]3CC[C@H](C)CC3)cc2)C1=O [Glimepiride] | 1.19 |
| CCC(C)SSc1ncc[nH]1 (stereo not drawn) | 0.984 |
| Cc1coc2c1C(=O)C(=O)c1c-2ccc2c(C)cccc12 [Tanshinone I] | 1.06 |
| Oc1ccc(-c2nc3cc(O)cc(Br)c3o2)cc1 | 1.01 |
| O=P(O)(O)C(Cl)(Cl)P(=O)(O)O [Disodium clodronate tetrahydrate] | 0.96 |
| CCNC(=O)C#Cc1ccc2c(C(=Nc3ccc(CN(C)C)cc3)c3ccccc3)c(O)[nH]c2c1 | 0.767 |
| C=C(C)C1CC=C(C)CC1 (single isomer, unassigned; (+)) [(+)-Dipentene] | 1.03 |
| O=C1CCc2cc(OCCCCc3nnnn3C3CCCCC3)ccc2N1 [Cilostazol] | 1.14 |
| Nc1ncnc2c1c(-c1cnc3[nH]ccc3c1)nn2C1CCCC1 | 0.782 |
| COc1ccc2cc1Oc1ccc(cc1)C[C@H]1c3cc(c(OC)cc3CCN1C)Oc1c(OC)c(OC)cc3c1[C@H](C2)N(C)CC3 [Tetrandrine] | 0.974 |
| COc1cc(OC)cc(-c2cc3cnc(N)nc3nc2NC(=O)NC(C)(C)C)c1 | 0.674 |
| CCCCc1nc(C)c(CC(=S)N(C)C)c(=O)n1Cc1ccc(-c2ccccc2-c2nnn[nH]2)cc1 [Fimasartan] | 0.864 |
| Cc1nc(NC(=O)N2CCC[C@H]2C(N)=O)sc1-c1ccnc(C(C)(C)C(F)(F)F)c1 [Alpelisib] | 0.785 |
| O=C(Nc1ccc(OC(F)(F)Cl)cc1)c1cnc(N2CC[C@@H](O)C2)c(-c2cc[nH]n2)c1 [Asciminib] | 1.03 |
| CC(C)NCC(O)COc1cccc2ccccc12 (stereo not drawn) [Propranolol hydrochloride] | 0.891 |

| SMILES | cell viability |
| --- | --- |
| COc1ccc2cc([C@@H](C)C(=O)O)ccc2c1 [(R)-Naproxen] | 0.94 |
| COC(=O)[C@@H]1[C@H]2C[C@H]3c4[nH]c5ccccc5c4CCN3C[C@@H]2CC[C@@H]1O [Yohimbine hydrochloride] | 1.22 |
| CCC1C/C(=C\c2cccnc2)C(=O)/C(=C/c2cccnc2)C1 (stereo not drawn) | 0.98 |
| CC1(C)NC(=O)N(c2ccc([N+](=O)[O-])c(C(F)(F)F)c2)C1=O [Nilutamide] | 0.998 |
| Cc1[nH]c(/C=C2\C(=O)Nc3ccc(S(=O)(=O)N(C)c4cccc(Cl)c4)cc32)c(C)c1C(=O)N1CCN(C)CC1 | 0.896 |
| CCCCCCc1ccc(O)cc1O [Hexylresorcinol] | 0.996 |
| O=C(/C=C\n1cnc(-c2cc(C(F)(F)F)cc(C(F)(F)F)c2)n1)NNc1cnccn1 [Selinexor] | 0.853 |
| CN(C)Cc1ccc(-c2nc3cccc4c3n2CCNC4=O)cc1 | 0.995 |
| Cc1cc(C)c(NC(=O)C2CC3CCC2C3)c(C)c1 (stereo not drawn) | 0.981 |
| Cc1cccc(Nc2nc(-c3ccncc3)cs2)c1 | 0.818 |
| CN(C)CCC(c1ccccc1)c1ccccn1 (stereo not drawn) [Pheniramine maleate] | 1.09 |
| CC(C)CCC[C@@H](C)[C@H]1CC[C@H]2[C@@H]3CC=C4C[C@@H](O)CC[C@]4(C)[C@H]3CC[C@]12C [Cholesterol] | 1.12 |
| Nc1ccn([C@@H]2O[C@H](CO)[C@@H](O)[C@H]2O)c(=O)n1 [Cytidine] | 1.09 |
| COc1cc(/C=C/CO)cc(OC)c1O[C@@H]1O[C@H](CO)[C@@H](O)[C@H](O)[C@H]1O [eleutheroside-b] | 1.1 |
| C[C@@H]1O[C@@H](O[C@@H]2[C@H](O)[C@@H](O)[C@H](O[C@H]3CC[C@@]4(C)C(CC[C@]5(C)C4C=C[C@]46OC[C@@]7(CCC(C)(C)CC74)[C@@H](O)C[C@]65C)C3(C)C)O[C@@H]2CO[C@@H]2O[C@H](CO)[C@@H](O)[C@H](O)[C@H]2O)[C@H](O)[C@H](O)[C@H]1O (stereo partly drawn) [Saikosaponin C] | 0.993 |
| O=c1cc(CN2CCOCC2)occ1OCCCCCSc1ccnc2cc(C(F)(F)F)ccc12 | 0.875 |
| CCOc1ccc(Cc2cc([C@@H]3O[C@H](CO)[C@@H](O)[C@H](O)[C@H]3O)ccc2Cl)cc1 [Dapagliflozin] | 0.948 |
| O=C(O)c1cc(=O)c2c(OCC(O)COc3cccc4oc(C(=O)O)cc(=O)c34)cccc2o1 [Sodium cromoglycate] | 1.03 |
| O=c1c(O)c(-c2ccccc2)oc2cc(O)cc(O)c12 [Galangin] | 1.03 |
